Some of the results follow. Cleavage of a single-stranded DNA pool by Rep nickase domains was read by sequencing at 3 µM enzyme and 37 °C for 1 h; the strands have 90 letters, of which the middle is given. The score is log2 (uncut reads / reads without enzyme); more negative means more cut, near 0 not cut, and no call is made. Because reads are shares of a total, they shift together; uncut strands gain when others are lost, and binding without cutting may add a little.
system: T1, Rep nickase domain of tomato golden mosaic virus; assay: uncleaved DNA left, log2 of reads against the no-enzyme library (log2 ratio); higher = less cleavage (more negative = more Rep cleavage of the k-mer); sequences stand for … in CTCGTCCG…ACCGGAGA
T1 sequence (residues 1-124, tag not shown): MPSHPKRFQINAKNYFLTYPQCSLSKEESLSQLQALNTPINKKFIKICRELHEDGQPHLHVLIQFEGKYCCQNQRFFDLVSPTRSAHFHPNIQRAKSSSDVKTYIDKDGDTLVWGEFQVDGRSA
Protocol: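 A pool of 90-nt single-stranded DNAs with seven random bases just before the constant AC of the nick site (name = the seven bases) was cut by 3 µM recombinant His6-SUMO-tagged Rep nickase domain (300 nM DNA, 50 mM HEPES pH 8.0, 50 mM NaCl, 1 mM MnCl2, 1 h, 37 °C, three replicates). Uncut DNA was amplified and sequenced.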

Sequence	uncleaved DNA left (log2)
CTGGAAG	0.0101
CGTAAGC	0.0479
GGTCTCA	0.0146
TCGGGAG	0.124
GCGGCCG	0.0099
CTGTCAG	-0.16
GTGTGCG	-0.115
AGATGGT	0.101
GCTTTCC	-0.0983
CATGGGG	0.176
CATATCG	-0.0426
TCCATGA	0.13
GCACAAG	0.166
ACTACGG	0.087
TCAACCC	-0.0174
CGGCACG	-0.0772
GACCTGT	0.0414
ATCTGTA	0.103
GCGACGA	0.0678
TACCCAC	-0.138

Sequence	uncleaved DNA left (log2)
CAAGGCA	-0.0077
TGCCCTT	0.0227
CTGGTAC	-0.0268
GACGATA	-0.0461
TAAAACC	-0.0758
TTTGGCG	-0.0609
AGGTCCT	-0.0358
CCGCCAA	-0.126
GAGCTGA	0.183
CTCTCCG	-0.0719
TATACGC	-0.0866
CCGACAT	0.0798
TACACTA	-0.00064
CCCTGGC	0.0192
GTCACAC	0.0811
TTGGAAA	0.114
TACGACG	-0.0735
TAAATGT	-2.42
AACTGCA	-0.0601
TTTTCCC	-0.155

— the supplement of paper PMC7826260
